Experimental data as given in PubChem BioAssay AID1508623 (National Center for Advancing Translational Sciences (NCATS), 2021).
Screen size: about 48,000 compounds; about 450 (0.94%) were called active. About 19% were inconclusive and are not listed. The call rests on the fitted dose curve; in most records, active means well fitted inhibition curve with a large enough effect; inconclusive means small, poorly fitted or top-dose-only effect; inactive means no such curve, though single readings can be large or run the other way. This is one part of the list.

assay: Primary qHTS for Identification of Small Molecule Inhibitors of Huntingtin Promoter Activity; settings: HEK293 HTT promoter firefly luciferase reporter (activity 0% = vehicle and -100% = no light), 24 h; series mostly up to 57.5 µM; activity change, negative = inhibition: at the top concentration; further: nearly all actives have a fitted effect of over 50% in size
Procedure, shortened: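 Firefly luciferase signal from promoter-reporter HEK293 cells was scaled between vehicle (0%) and zero RLU (-100%). Compounds were tested at final concentrations of up to 57.5 uM over 24 h at 37 degrees C. PTC124 at 50 uM final served as control inhibitor.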

Activity change, negative = inhibition, inactive:
O=C(Cc1ccccc1)NC1CC(=O)N(c2ccc3c(c2)OCCO3)C1 (stereo not drawn) -5.88%, NCCS 14.1%, CCN(CC)c1ccc(NC(=O)C(NS(=O)(=O)c2cccs2)C(C)C)c(C)c1 (stereo not drawn) -18.4%, O=C(OCc1ccccc1F)c1ccc(-c2nnn(Cc3ccccc3)n2)cc1 0.521%, CCn1nc(-c2ccccc2)c(-c2ccccc2)c(C(=O)Nc2ccccc2C(N)=O)c1=O -0.258%, CN(C(=O)c1cnc(N2CCOCC2)c2ccccc12)c1ccccc1F 1.87%, CCCOc1ccc2c(c1)CC[C@@H]1[C@@H]2CC[C@]2(C)C(OC)CC[C@@H]12 (stereo partly drawn) 3.56%, COc1ccc(-n2nnnc2C2CCN(S(=O)(=O)c3cccc(Cl)c3C)CC2)cc1 -14%, Cc1ccccc1-c1nnc(CN2CCN(c3cccc(C)c3C)CC2)o1 -9.28%, Brc1ccc(-c2nnc3sc(CN4CCCCC4)cn23)cc1 -12.1%, Cc1ccc(NC(=O)CSc2nnc(C)n3c2cc2sccc23)c(C)c1 9.22%, CC(C)(C)NC(=O)c1cnn(-c2ccccc2)c1C1CCN(C(=O)OC(C)(C)C)CC1 -9.13%, Cc1ccc(CSc2ccc(-c3cccs3)nn2)cc1 66.7%, O=C(Cn1ncc2c3ccccc3n(Cc3ccccc3F)c2c1=O)NC1CCCCCC1 -9.71%, O=C(NCc1ccccc1Cl)c1cc2c(s1)-c1ccccc1SC2 -2.76%, COc1cc(C(=O)NCC(c2cccnc2)N2CCc3ccccc3C2)cc(OC)c1OC (stereo not drawn) -13.6%, CCC(=O)Nc1ccccc1-c1nc2ccccc2n(CC(=O)c2ccc(C)c(C)c2)c1=O -3.46%, Cc1ccc(CN(C(=O)COc2ccc(Cl)c(C)c2)c2ccccn2)o1 -20.5%, O=C(CN1C(=O)COc2ccc(S(=O)(=O)N3CCOCC3)cc21)N1CCN(c2cccc(C(F)(F)F)c2)CC1 -6.79%, C[C@]12CCC(=O)C=C1C=C[C@@H]1[C@@H]2CC[C@@]2(C)[C@H]1CC[C@@]21CCC(=O)O1 -24.8%, Cc1oc2ncn(C)c(=O)c2c1C(=O)Nc1ccccn1 -7.7%, COc1cc(C2c3c(-c4c(C)cc(C)cc4O)n[nH]c3C(=O)N2CCO)cc(OC)c1OC (stereo not drawn) -24.6%, Cc1nc2nc(SCc3c(F)cccc3Cl)nn2c(C)c1Cc1ccccc1 25.8%, Cc1ccc(-c2cc(-c3ccc4c(c3)NC(=O)CO4)nc3c2COc2ccc(C)cc2-3)cc1 -11.8%, COc1ccc(OC)c(CNC(=O)c2cc3cc4ccc(OC)cc4nc3o2)c1 3.12%, Cc1cc(NC(=O)c2ccccc2Cl)ccc1NC(=O)c1ccccc1 10.4%, COc1ccc(-c2noc(COc3cc(C)c(Br)c(C)c3)n2)cc1OC -2.29%, COC(=O)[C@@H](N)Cc1ccc(O)c(O)c1 -3.67%, Cc1ccc(C(=O)/C=C/c2cn(CC(O)CN3CCc4ccccc43)c3ccccc23)cc1 (stereo not drawn) -30.6%, CCOc1cc2sc(N3CCC(C(=O)Nc4ccccc4Cl)CC3)nc2cc1Br 90.6%, Cc1ccc(CN2CCC(CNC(=O)c3cc4ccc5cccnc5c4[nH]3)CC2)cc1 -23.7%, Cc1cc(S(=O)(=O)C(CNC(=O)COc2ccccc2)c2cccs2)ccc1F (stereo not drawn) -6.73%, Cc1ccc(-c2nn(CC(=O)NC3CCCC3)c3c2cnc2ccc(F)cc23)cc1C 16.7%, COc1ccc(NC(=O)CCN2CCN(CCO)CC2)c(OC)c1 -7.68%, O=C(Nc1ccc2nc(SCc3ccccc3)sc2c1)c1cccc(F)c1 -13.5%, COc1ccc(OCCSc2nc(C)c(Cc3ccccc3)c(=O)[nH]2)cc1 -10.7%, COc1ccc(Oc2nc3c(c(=O)n(C)c(=O)n3C)n2Cc2ccccc2Cl)cc1 -23% [at 11.5 µM], COc1ccccc1Cn1cc(C(=O)c2ccc(Cl)cc2)c(=O)c2cc3c(cc21)OCCO3 -6.24%, CN1CCN(C(=O)c2ccc3c(c2)N(Cc2c(F)cccc2Cl)C(=O)c2ccccc2S3)CC1 -31.6%, Cc1ccccc1C(=O)Nc1nnc(SCc2cc(=O)n3ccccc3n2)s1 -3.09%, CCOc1ccc(C(=O)CSc2nnc3cc(C)c4ccccc4n23)cc1 -8.23%, CCOc1cc(C(=O)Nc2nnc3n2CCS3)cc(OCC)c1OCC -4.15%, COc1ccccc1CNC(=O)COc1cc(=O)n(C)c2ccccc12 17.4%, Cc1ccc(N(CC(=O)NCC(C)c2ccccc2)S(=O)(=O)N(C)C)cc1 (stereo not drawn) 0%, COc1cc(Cl)c(C)cc1Nc1nc2ccccc2nc1NS(=O)(=O)c1ccccc1 58.8%, Cc1ccc(N2CCN(C(=O)NCc3noc4ccccc34)CC2C)cc1 (stereo not drawn) -28.1%, COc1ccc(S(=O)(=O)n2nc(C)c(S(=O)(=O)N3CCCCCC3)c2C)cc1OC -12.6%, CCCOc1ccc(C(=O)N(Cc2cccs2)c2ccc(C)cc2)cc1 -13.7%, COc1ccc(Cl)cc1S(=O)(=O)N1CCN(Cc2cccc(F)c2)CC1 -30.3%, CCOC(=O)c1c(C)oc2ncnc(NCCCN3CCN(c4cc(C)ccc4C)CC3)c12 -19.6%, COc1ccc(-c2c3c(nc4sc(C(=O)Nc5ccc(F)cc5)c(N)c24)CC(C)(C)CC3=O)cc1 -2.72%, CC(=O)c1cccc(NC(=O)CSc2nnc3ccc(-c4ccc(C)cc4)nn23)c1 -16.8%, Cc1cc2nc(-c3ccc(Cl)cc3)cc(C(F)(F)F)n2n1 -14%, Nc1ccncc1N -1.93%, Cc1ccccc1-c1nc(C(N)=O)c2c(n1)n(-c1ccc3c(c1)OCO3)c(=O)n2C -19.7%, CN(C)S(=O)(=O)c1ccc2c(c1)N(CC(=O)NCc1cccc(Br)c1)C(=O)CS2 -21.8%, O=C(NCc1ccco1)C1CCN(C(=O)N2CCOc3ccc(Cl)cc32)CC1 -1.78%, Cc1ccc(-c2nnc(NC(=O)c3ccc4c(c3)OCCO4)o2)c(C)c1 -11%, O=C1CC(c2nnc(Cc3ccc(Cl)cc3)o2)CN1c1ccccc1 (stereo not drawn) -14.3%, CCn1c(=N)c(C(=O)NC2CCCCC2)cc2c(=O)n3cccc(C)c3nc21 -8.33%, O=c1cc2nc(-c3cccs3)nc(SCCOc3ccc(Cl)cc3)n2[nH]1 -22.5%, COc1ccccc1-c1nnc2n(CCc3ccccc3)c(=O)c3ccccc3n12 4.54%, Cc1ccc(C)c(Cn2c(=O)n(Cc3ccc(C(=O)NC4CCN(Cc5ccccc5)CC4)cc3)c(=O)c3ccccc32)c1 -10.2%, COc1cccc(-n2cc(C(=O)Oc3cccc(C(F)(F)F)c3)c3ccccc3c2=O)c1 -11.2%, CC(=O)N1c2ccccc2CC1C(=O)N1CCN(c2cccc(Cl)c2)CC1 (stereo not drawn) -14.7%, O=C(CC1C(=O)N(c2ccc(F)cc2)C(=O)N1Cc1ccc2c(c1)OCO2)Nc1ccc(F)cc1 (stereo not drawn) -22.5%, COc1cccc(CNC(=O)CN2C(=O)CCCc3ccccc32)c1OC 0%, CCOC(=O)c1cnc2c(C)cccc2c1NCCc1ccc(OC)c(OC)c1 -28.6%, Nc1c(-c2nc(-c3cccs3)no2)nnn1-c1cccc(F)c1 98.5%, Cc1ccc(C)c(CN2C(=O)c3ccccc3S(=O)(=O)c3ccc(C(=O)N4CCCC4)cc32)c1 -27.8%, CCOC(=O)CSc1nc2c(sc3ccccc32)c(=O)n1Cc1ccc(C)cc1 -7.9%, CC(=O)NCCNc1nc2c(-c3ccc(C)cc3)nnn2c2ccccc12 2.62%, CCc1sc(Nc2ccc(C)cc2Br)nc1-c1cc2cccc(OC)c2oc1=O -25.8%, CCCN(CCC)C(=O)Cn1c(=O)n(-c2ccc(C)cc2)c(=O)c2ccc(C(=O)NCc3ccccc3Cl)cc21 -19.4%, CNC(=O)C1CCN(Cc2cc3ccccc3n2Cc2ccccc2C)CC1 -26.4%, Cc1ccc(-c2cn3c(n2)sc2cc(C(=O)NCc4cccs4)ccc23)cc1 3.55%, CCCCNC(=O)Cn1c(=O)cc(C)c2c(C)nn(-c3ccc(CC)cc3)c21 -17.3%, CCC1CN(C(=O)N2CCC(C(=O)NCCc3ccc(C)cc3)CC2)c2ccccc2O1 (stereo not drawn) -26.9%, CCOCCCNC(=O)CCC(=O)NNc1nc2ccccc2c2nc(-c3ccccc3)nn12 -4.72%, Cc1oc(-c2ccccc2)nc1CSc1nnc(C)n2c1cc1sccc12 -4.83%, O=C(CCc1nnc2n(Cc3ccccc3Cl)c(=O)c3ccccc3n12)Nc1ccc(F)c(F)c1 0.666%, Cc1ccc(-n2nc(CO)c(C(=O)NCC(c3ccccc3)c3ccccc3)n2)cc1 6.55%, CCOC(=O)N1CCc2c(sc3c2c(=O)n(CCc2ccccc2)c(=O)n3CC(=O)Nc2ccccc2C)C1 -9.88%, COC(=O)c1cc2sccc2n1Cc1c(C)cc(C)cc1C 0.734%, O=C(c1cccc(Cl)c1)N(Cc1cccc(F)c1)C1CCS(=O)(=O)C1 (stereo not drawn) 1.62%, CCCN1CCN(CCCNC(=O)c2cc3c(s2)-c2c(C)cccc2OC3)CC1 -27.8%, Cc1ccc(NC(=O)C2CCN(C(=O)c3sc4nc[nH]c(=O)c4c3C)CC2)cc1F 0.635%, CCOc1cccc(C(=O)N(Cc2ccc(C(C)C)cc2)C2CCS(=O)(=O)C2)c1 (stereo not drawn) -25%, Cc1ccc(C)c(OCCCC(C)(C)C(=O)O)c1, COc1ccccc1C(=O)Nc1ccccc1OCc1cc(=O)n2cc(C)sc2n1 3.1%, CCN1C(=O)C(Cc2nc3ccccc3c(=O)n2-c2cccc(C)c2)c2ccccc21 (stereo not drawn) -17%, CC(C)Oc1ccc(C(=O)NCCc2csc(-c3cccc(F)c3)n2)cc1 -31.9%, Cc1ccc(-c2noc(-c3ccccc3OCC(=O)Nc3ccccc3[N+](=O)[O-])n2)cc1 11.1%, O=C(Nc1ncc(Cc2ccc(F)cc2)s1)c1ccc2c(c1)CC(c1ccccc1)OC2=O (stereo not drawn) -10.6%, CCCC(=O)N1c2nc(-c3ccco3)nn2C2(CCCCC2)[C@@H]2CCCC[C@@H]21 -12.3%, COc1cccc(NC(=O)Cn2c(=O)n(-c3ccc(C)cc3)c(=O)c3ccccc32)c1 -22.2%, Cc1nn(C)c2c1c(C(F)(F)F)cc(=O)n2CC(=O)Nc1ccc(F)cc1F -29.7%, Cc1nnc(N2CCC(C(=O)NC3CCC(C)CC3)CC2)c2nn(-c3ccc(Cl)cc3)c(C)c12 (stereo not drawn) -12.1%
